Assay results taken from the RNAGym collection of RNA variant scans (doi:10.1073/pnas.2313332121).
Variants at the floor of the assay are shown more often than the library holds them.

B1: TPR 5TU (parent)
chain: GGAUCUUCUCGAUCUAACAAAAAAGACAAAUCUGCCACAAAGCUUGAGAGCAUCUUCGGAUGCAGAGGCGGCAGCCUUCGGUGGCGCGAUAGCGCCAACGUUCUCAACUAUGACACGCAAAACGCGUGCUCCGUUGAAUGGAGUUUAUCAUG

Variants of: B1
Assay: polymerase ribozyme fitness, log enrichment relative to wild type (log ratio); higher = more active; in vitro selection for triplet polymerase activity
How it was run: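 Mutant libraries for each subunit of a heterodimeric triplet polymerase ribozyme were made by PCR and then transcribed. Each library underwent one round of in vitro selection in triplicate: annealing with a biotinylated primer, the partner subunit and triplets, frozen incubation at −7 °C, gel excision of extended constructs, streptavidin-bead capture and RT-PCR. Input and output libraries were Illumina-sequenced, and only genotypes with ≥10 input reads and ≥1 read per output were kept. Fitness is the logarithm, base 2, of genotype enrichment over wild-type enrichment, computed from inverse-variance-weighted replicate averages.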

Point of comparison: U77C, “polymerase ribozyme fitness (log ratio)” value -2.04. Against it:
- C76A U109G G143A U146A — lower, ≤ -4.2
- C76A U135C — within 0.2 log units, -1.96
- C76A U151A — lower, ≤ -4.2
- C76G C79G U104G C129G U144C — lower, ≤ -4.2
- C76G C87U U101G — lower, ≤ -4.2
- C76G C93G C103U — lower, ≤ -4.2
- C76G C96G C99G G140U U148G — lower, ≤ -4.2
- C76G C96U — lower, ≤ -4.2
- C76G C96U A98C U101C — lower, ≤ -4.2
- C76G C96U U104A A106U C125U — lower, ≤ -4.2
- C76G C149A G152U — lower, ≤ -4.2
- C76G G81C A91G C96A C116G G117U U130G C131U U148G — lower, ≤ -4.2
- C76G G84A A122G — lower, ≤ -4.2
- C76G G86C A122U G133C A142G U148G — lower, ≤ -4.2
- C76G G88A G136A U139G — lower, ≤ -4.2
- C76G G88C A121G — lower, ≤ -4.2
- C76G G124U G141C — lower, ≤ -4.2
- C76G U130G G141C — lower, ≤ -4.2
- C76G U146A — lower, ≤ -4.2
- C76G U146C U151G — lower, ≤ -4.2
- C76G U148A — lower, ≤ -4.2
- C76U A89G — higher, -1.03
- C76U A91U G92A — lower, -4.02
- C76U C85A G141C U148C — lower, -3.74
- C76U C85G C87G C108U A113G G126C A137C — lower, ≤ -4.2
- C76U C87U G140U U146C — lower, -3.72
- C76U C93G C132U — lower, -3.96
- C76U G80A C93U U151G — lower, ≤ -4.2
- C76U G83A A89U A97U U102G — lower, ≤ -4.2
- C76U G84A U104G U151C — lower, ≤ -4.2
- C76U G84C — higher, -1.35
- C76U G84U G143A — lower, -2.57
- C76U G94A C99G G126C — lower, ≤ -4.2
- C76U U82A G88C U101G G112U A147G — lower, ≤ -4.2
- C76U U90C U111C — lower, ≤ -4.2
- U77A — lower, ≤ -4.2
- U77A A98U C116U A147U — lower, ≤ -4.2
- U77A A107U U146C — lower, ≤ -4.2
- U77A A138C U144G — lower, ≤ -4.2
- U77A C85G C93U C129A — lower, ≤ -4.2
- U77A C93A — lower, ≤ -4.2
- U77A G83U U134A — lower, ≤ -4.2
- U77A G88A — lower, ≤ -4.2
- U77A G88U A120U G140C — lower, ≤ -4.2
- U77A G94A A107G A121U G143C — lower, ≤ -4.2
- U77A G94A C95G G141U G152U — lower, ≤ -4.2
- U77A G124U A138G — lower, ≤ -4.2
- U77A U135A — lower, ≤ -4.2
- U77C A91U — lower, ≤ -4.2
- U77C C93A A98U C125A U139G — lower, ≤ -4.2
- U77C C116A C123U — lower, ≤ -4.2
- U77C G81A A91G G128U G141C — lower, ≤ -4.2
- U77C G81C A106C G143U — lower, ≤ -4.2
- U77C G86C C105A A119U — lower, ≤ -4.2
- U77C G86U U90C — lower, ≤ -4.2
- U77C G92C — lower, -3.48
- U77C G92U A97G — lower, ≤ -4.2
- U77C G94C — lower, -3.48
- U77G — lower, ≤ -4.2
- U77G A98G C116U — lower, ≤ -4.2
- U77G C85U C108A A113G — lower, ≤ -4.2
- U77G C87A G117U — lower, ≤ -4.2
- U77G C87G C99G — lower, ≤ -4.2
- U77G C87U C108A — lower, ≤ -4.2
- U77G C93A G143A U146C — lower, ≤ -4.2
- U77G C99A G140A — lower, ≤ -4.2
- U77G C99U G128U A137U — lower, ≤ -4.2
- U77G C114G A119G U127G — lower, ≤ -4.2
- U77G C116U U130G — lower, ≤ -4.2
- U77G G80A C96G G117A — lower, ≤ -4.2
- U77G G80C C96U — lower, ≤ -4.2
- U77G G92U A115U — lower, ≤ -4.2
- U77G U78C C85U — lower, ≤ -4.2
- U77G U144G — lower, ≤ -4.2
- U78A A91U — lower, ≤ -4.2
- U78A C85A U135G — lower, ≤ -4.2
- U78A C95G U127C U130G U139G — lower, ≤ -4.2
- U78A C131U — lower, ≤ -4.2
- U78A G80U A138G G152U — lower, ≤ -4.2
- U78A U144C U146C — lower, ≤ -4.2
- U78C A142G — higher, -1.33
- U78C A142U — higher, -1.72
